Data: paper PMC4336329 (PLoS ONE, 2015)
Hit rate of the full screen: of about 310,000 compounds, about 2,200 (0.71%) showed an effect of 50% or more. The effect is printed as a negative number. Some of the results follow.

biological target: human ether-à-go-go-related gene (hERG) potassium channel (human, UniProt Q12809); assay: primary screen, population patch clamp on CHO cells stably expressing hERG
Description: Briefly, Chinese hamster ovary (CHO) cells stably expressing the hERG channel were dislodged from tissue culture flasks and dispensed into PPC plates. […] During the recording, background leak currents were estimated by a 100 ms step to -80 mV from an initial holding potential of -70 mV and subtracted from the subsequent current measurement. The campaign was conducted in two phases using slight differences in recording protocol. In the first phase, the initial voltage pulse used a 100 ms step to -30 mV from a holding potential of -70 mV, a 2 s conditioning step to +25 mV, and a 2 s test step to -30 mV. During the second phase of the screen, the potential during the conditioning step was raised to +45 mV. In both phases of the campaign, a secondary voltage pulse was applied using the same parameters as the second phase initial pulse. The initial and secondary pulses were applied in the absence of compound, and upon application of 1 μM and 10 μM test concentrations. Small molecule effects on hERG current density were quantified by […].

human ether-à-go-go-related gene (hERG) potassium channel, sequence (Q12809 whole entry, looked up): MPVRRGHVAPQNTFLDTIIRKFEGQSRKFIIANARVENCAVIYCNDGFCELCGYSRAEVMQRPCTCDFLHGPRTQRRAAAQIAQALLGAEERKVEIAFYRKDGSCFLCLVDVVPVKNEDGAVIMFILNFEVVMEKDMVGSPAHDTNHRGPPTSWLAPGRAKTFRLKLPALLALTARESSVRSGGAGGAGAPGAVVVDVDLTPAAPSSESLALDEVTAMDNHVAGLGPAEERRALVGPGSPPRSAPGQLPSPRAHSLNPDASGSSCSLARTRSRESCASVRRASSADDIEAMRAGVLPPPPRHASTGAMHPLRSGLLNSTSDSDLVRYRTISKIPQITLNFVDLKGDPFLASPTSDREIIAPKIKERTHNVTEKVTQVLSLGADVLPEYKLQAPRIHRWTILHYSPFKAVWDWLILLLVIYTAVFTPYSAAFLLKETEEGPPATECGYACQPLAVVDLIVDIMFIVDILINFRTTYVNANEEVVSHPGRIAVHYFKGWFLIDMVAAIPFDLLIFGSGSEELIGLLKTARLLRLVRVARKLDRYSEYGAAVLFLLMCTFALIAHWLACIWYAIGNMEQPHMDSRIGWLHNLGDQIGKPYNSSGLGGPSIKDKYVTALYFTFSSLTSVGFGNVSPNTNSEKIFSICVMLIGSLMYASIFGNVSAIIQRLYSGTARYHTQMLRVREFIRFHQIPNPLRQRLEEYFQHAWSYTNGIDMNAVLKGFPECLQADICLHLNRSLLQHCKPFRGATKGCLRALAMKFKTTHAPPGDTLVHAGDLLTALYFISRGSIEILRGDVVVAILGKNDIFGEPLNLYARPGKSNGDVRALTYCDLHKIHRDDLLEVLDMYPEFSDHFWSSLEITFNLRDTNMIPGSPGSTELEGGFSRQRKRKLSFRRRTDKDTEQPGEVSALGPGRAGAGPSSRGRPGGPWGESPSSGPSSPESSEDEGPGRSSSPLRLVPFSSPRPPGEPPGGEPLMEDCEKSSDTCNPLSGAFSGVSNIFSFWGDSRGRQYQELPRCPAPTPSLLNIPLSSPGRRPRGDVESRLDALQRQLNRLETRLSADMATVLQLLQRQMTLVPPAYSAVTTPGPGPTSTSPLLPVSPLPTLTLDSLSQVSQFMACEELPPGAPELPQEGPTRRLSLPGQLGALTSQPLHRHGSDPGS

In order of rising “hERG current change (%, negative = inhibition) at 1uM” value:
1. O=C1NC(=O)C(CCc2ccncc2)(CCc2ccncc2)C(=O)N1C1CCCCC1  -69.7%
2. COC(=O)c1cc(S(=O)(=O)NCC2CCN(Cc3ccc(C)cc3)CC2)c[nH]1  -63%
3. CCCn1c(SCC(=O)c2ccc3c(c2)OCCO3)nnc1C(C)C  -8.41%
4. COc1ccc(Nc2ccnc3ccccc23)cc1.Cl  -6.28%
5. Cc1ccc(S(=O)(=O)N2CCCC2C(=O)Nc2nc3ccccc3s2)cc1 (stereo not drawn)  -5.12%
6. COc1ccc(C(=O)C2CCCN(Cc3cnc(N4CCOCC4)s3)C2)c(OC)c1 (stereo not drawn)  -4.05%
7. COc1ccc(OCC(=O)Nc2ccccc2N2CCN(C)CC2)cc1  -3.86%
8. CC1CCCN(C(=S)NCc2ccccc2)C1 (stereo not drawn)  -2.9%
9. Cc1ccc(N2CCN(CC(O)COc3cccc4ccccc34)CC2)cc1 (stereo not drawn)  -0.483%
10. O=C(c1cccc(S(=O)(=O)N2CCOCC2)c1)N1CCC(Cc2ccccc2)CC1  0.775%
11. Cc1cccc(N2CCN(C(=O)c3cccc(N4C(=O)C5CC=CC(C)C5C4=O)c3)CC2)c1C (stereo not drawn)  2.22%
12. CS(=O)(=O)NCCOc1ccc(S(=O)(=O)N2CCCc3ccccc32)cc1  2.34%
13. NCCCCCc1cn([C@@H](CO)C(=O)NCCCCCCCCCCC(=O)N2CCNCC2)nn1  2.47%
14. CC(C)CC1NC(=O)N(CC(=O)Nc2ccc3c(c2)CCC3)C1=O (stereo not drawn)  2.78%
15. O=C(CCCCn1c(=O)c2ccccc2n(Cc2ccc(Cl)cc2)c1=O)NCc1ccco1  3.59%
16. C=CCN(C(=O)CNC(=O)c1ccco1)C(C(=O)NC1CCCCC1)c1cccnc1 (stereo not drawn)  3.63%
17. Cc1cccc(SCC(=O)Nc2ccccc2[N+](=O)[O-])c1  3.75%
18. CN(C)c1ccc(/C=N/NC(=O)c2sccc2-n2cccc2)cc1  4.65%
19. CCN(CC)S(=O)(=O)c1ccc2oc(C(=O)NC(C)C)c(C)c2c1  5.03%
20. Cl.O=C(OCCN1CCCCC1)c1ccccc1Br  5.12%
21. O=C(NC(=S)NNS(=O)(=O)c1ccccc1)c1ccc([N+](=O)[O-])cc1  5.2%
22. CCN(CC)C(=O)c1[nH]cnc1C(=O)N[C@@H](C)C(=O)OCc1ccccc1  5.76%
23. C/C(=N\NC(=O)CNC(=O)c1ccccc1Br)c1ccco1  5.77%
24. CCOC(=O)C(O)(c1ccc(N(CC)C(=O)COc2ccccc2)cc1)C(F)(F)F (stereo not drawn)  5.79%
25. CC(NC(=O)[C@H](C)NC(=O)C1CC(=O)N(c2ccc3c(c2)OCO3)C1)c1ccccc1 (stereo partly drawn)  5.86%
26. Cc1cccc(OCC(=O)NC(Cc2ccccc2)C(=O)O)c1 (stereo not drawn)  6.26%
27. CCOc1cc(C=O)ccc1OCC(=O)NC(C)(C)C  6.41%
28. COc1ccc(/C=N/Nc2nonc2N)cc1OC  6.54%
29. CC(=O)Nc1ccc(S(=O)(=O)N[C@@H](C)C(=O)OCc2cc([N+](=O)[O-])cc3c2OCOC3)cc1  6.61%
30. CCOC(=O)NCC(C#CCN(CC)CC)N(CC)CC (stereo not drawn)  7.24%
31. COc1cccc(C(=O)/C=C/c2ccc(N3CCCCC3)c([N+](=O)[O-])c2)c1  7.48%
32. CCCC(=O)Nc1nc(C)c(-c2csc(Nc3ccccc3C)n2)s1  7.58%
33. Cc1ccc(C)c(Nc2nc(-c3cccnc3)cs2)c1  7.69%
34. COc1cc(C)nc(N(C)S(=O)(=O)c2ccccc2Cl)n1  7.72%
35. Fc1ccc(N2CCN(c3cnc4ccccc4n3)CC2)cc1  7.89%
36. CC(C)NCC(O)COCCOc1ccc(Cl)cc1.Cl (stereo not drawn)  8.08%
37. COc1ccc(S(=O)(=O)N2CCc3ccccc32)cc1C(=O)OCC(=O)c1c(N)n(C)c(=O)n(C)c1=O  8.21%
38. NC(=O)c1cccc(-c2cc(Nc3ccc(OC(F)(F)F)cc3)ncn2)c1  8.52%
39. COc1ccc(C(C)=O)cc1COc1cccnc1[N+](=O)[O-]  8.63%
40. Cl.O=C(CCN1CCOCC1)Nc1ccc(Cl)cc1  8.71%
41. CC(=O)N1N=C(c2ccc3ccccc3c2)OC1(C)C  8.84%
42. CN(CC(=O)NCCc1ccc(S(N)(=O)=O)cc1)S(=O)(=O)c1ccc(Br)s1  8.96%
43. CCOc1ccccc1N(CC(=O)Nc1ccc(S(=O)(=O)N2CCOCC2)cc1)S(=O)(=O)c1ccccc1  9.41%
44. Cc1ccc(NC2=NCC(=O)N2Cc2ccccc2)c(C)c1  9.59%
45. CCC(CC)NC(=O)c1ccc2c(c1)OCCO2  9.66%
46. Cc1ccc(C(=O)CSc2nc(N)cc(=O)[nH]2)cc1C  9.67%
47. COc1cc(C(=O)Nc2ccc(OCC(=O)N3CCOCC3)cc2C)cc(OC)c1OC  9.76%
48. Cc1ccc(OCC(=O)NN2C(=O)c3ccccc3C2=O)c(C)c1  9.92%
49. CCC(CC)C(=O)NCCc1cc2c(C)ccc(C)c2[nH]c1=O  9.97%
50. COc1ccc(OCC(=O)Nc2cc(NC(=O)COc3ccc(OC)cc3)cc(C(=O)O)c2)cc1  10.2%
51. O=C(CCCN1C(=O)S/C(=C/c2ccccc2)C1=S)Nc1ccc(C(=O)O)cc1  10.2%
52. COCCN1CCN(c2c(C)c(C)nc3cc(-c4cccc(OC)c4)nn23)CC1  10.6%
53. COc1ccc(NC(=O)c2cccc(NC(=O)C3C4CC5OC(=O)C3C5C4)c2)c(OC)c1 (stereo not drawn)  10.6%
54. O=C(Cn1cnc2c(nnn2Cc2ccc(Cl)cc2)c1=O)NC1CCCC1  10.9%
55. O=C(N/N=C/c1ccc([N+](=O)[O-])o1)c1cn(-c2ccccc2)nc1-c1ccc(Cl)cc1  11.6%
56. COc1cc2nc(Nc3ccc(F)cc3)nc(N)c2cc1OC.Cl  11.8%
57. CC(=O)Nc1ccc(S(=O)(=O)N(CCc2ccccc2)CC(=O)N/N=C/c2ccc(C(=O)O)cc2)cc1  11.8%
58. S=c1nc(-c2ccccc2Cl)n(Cc2cccnc2)c2c1CCCC2  12%
59. COc1ccc(CCNC(=O)C2CCC(=O)N2Cc2ccccc2Cl)cc1OC (stereo not drawn)  12%
60. COc1ccc(C(C)C)cc1S(=O)(=O)NC1CCCC1  12.1%
61. Cc1noc(C)c1S(=O)(=O)NCCN1CCN(c2ccccc2)CC1  12.4%
62. COc1ccc(OCC(=O)NNC(=O)c2cccc(S(=O)(=O)N(C)C)c2)cc1  12.5%
63. O=C(CSc1ncnc2nc[nH]c12)c1ccc(Cl)cc1  13%
64. Cc1ccc2oc(=O)c(/C=C(\O)c3ccco3)nc2c1  13.2%
65. COc1ccc2cc3cc(C(=O)NCCCN4CCc5ccccc5C4)sc3nc2c1  13.3%
66. CCCNC(=O)Cn1cnc2sc(C(=O)N3CCN(Cc4ccc5c(c4)OCO5)CC3)c(C)c2c1=O  13.7%
67. C=CCN1C(=O)[C@@H]2Cc3c([nH]c4ccccc34)C(c3cc(OC)c(OC)c(OC)c3)N2C1=S (stereo partly drawn)  14%
68. O=C(O)c1cnn2c(-c3ccc(F)cc3)ccnc12  14.1%
69. COc1ccc(NC(=O)c2cccc(-c3ccc(O)cc3)c2)cn1  14.7%
70. Cc1cccc(NC(=S)N2CCN(C(=O)c3ccco3)CC2)c1C  14.8%
71. COCCn1c(C)nnc1SCC(=O)NNC(=O)c1ccc(Cl)cc1  14.9%
72. COc1ccccc1C1=NOC(COC(=O)c2ccc(Br)cc2)C1 (stereo not drawn)  15.2%
73. CC(C(=O)NC1CCCc2ccccc21)N1C(=O)C2CCCCC2C1=O (stereo not drawn)  15.6%
74. C=CCNC(=O)[C@H]1N2C(=O)c3ccccc3C2SC1(C)C (stereo partly drawn)  16.1%
75. NC(=O)[C@@H]1CC2(CC(c3cccc(NC(=O)[C@H]4CCC(=O)N4)c3)=NO2)CN1C(=O)COc1ccc(Cl)cc1 (stereo partly drawn)  17.4%
76. CCC(=O)N1CCc2cc(S(=O)(=O)CCC(=O)N3CCN(c4ccc(Cl)cc4)CC3)ccc21  18.1%
77. COc1cccc(C(=O)CSc2nnnn2C2CCCCC2)c1  18.1%
78. Cc1c2ccccc2cc[n+]1CCCS(=O)(=O)[O-]  18.5%
79. O=C1NC(c2ccccc2)(C(F)(F)F)SC2=CCCCCN12 (stereo not drawn)  18.9%
80. CN1CCN(C(=O)c2cccn(Cc3ccc(C(F)(F)F)cc3)c2=O)CC1  19.1%
81. Cc1ccc(NC(=O)CC(O)(C(F)(F)F)C(F)(F)F)cc1  19.8%
82. CN(Cc1ccccc1)S(=O)(=O)c1ccc(NC(=S)NC(=O)C2CCCC2)cc1  21.1%
83. CC(=O)Nc1ccc(NC(=O)CSc2nnc(-c3ccco3)n2Cc2ccco2)cc1  21.5%
84. COc1ccc(NC(=O)C2CC(c3cccc(Br)c3)=NO2)cc1OC (stereo not drawn)  22%
85. O=C(Cn1nnc(-c2ccccc2F)n1)N1CCCCC1  24.2%
86. C=CCNc1nnc(Cc2ccc(F)cc2)c(=O)[nH]1  26.1%
87. O=C(Cc1ccc(Cl)cc1)Nc1ccc(NC(=O)c2ccccc2)cc1  28.2%
